# Assay results: the supplement of paper PMC10681739
# Whole data set: some 2,700 sequences, median “arbitrary fluorescence units” near 4,100, cut for the highest 2% near 54,000. The list shows a part of the results.
# Target: T1, ETS1 (UniProt P14921)
# T1 sequence: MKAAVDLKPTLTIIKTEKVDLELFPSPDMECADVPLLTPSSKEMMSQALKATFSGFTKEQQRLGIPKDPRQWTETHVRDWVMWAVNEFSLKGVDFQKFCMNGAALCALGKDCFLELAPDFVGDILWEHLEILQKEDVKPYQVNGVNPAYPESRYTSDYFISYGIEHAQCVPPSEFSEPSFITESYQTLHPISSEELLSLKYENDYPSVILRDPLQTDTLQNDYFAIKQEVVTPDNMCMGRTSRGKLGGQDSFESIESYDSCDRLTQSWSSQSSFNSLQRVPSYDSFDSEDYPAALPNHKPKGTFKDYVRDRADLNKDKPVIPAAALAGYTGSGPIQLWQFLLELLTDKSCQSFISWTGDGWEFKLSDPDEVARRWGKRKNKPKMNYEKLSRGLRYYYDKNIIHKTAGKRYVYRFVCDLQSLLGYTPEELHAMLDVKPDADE
# Experiment: ETS1 binding intensity (PBM fluorescence) (arbitrary fluorescence units); higher = stronger binding
# Settings: ETS1 concentration 10 nM
# Procedure: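 gcPBM on wild-type 36-bp genomic probes with two neighbouring ETS1 sites (4-24 bp apart). Recombinant human ETS1 (10 nM) was detected with anti-ETS1 antibody fluorescence. Values are medians over 3 replicate spots. The probes sit in constant array flanks that are not printed.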
row,Sequence,ETS1 binding intensity
1,CACCCTCCATGGTTCCAGCCGGAAAAAGAGGAAGTT,270
2,GGACAGGGACCGGATGGGAGGGGAAGTCGATGCTTG,3430
3,CACCCATTTTCACTTCCGCTTCCGGTTGTCACAGGC,26500
4,GGCGTTCCACAGGAAAAGCCTTTTCCTGTGTTTGGC,2540
5,CGGGCAGGAAGCTCCACCCTCACTCCAGGAAGCTCT,2640
6,CCCGCCGGAAGCTGGGGTCCGCAGGCCGGAAGCTGA,17500
7,CGTACAGGATGCAATGACAGTTGGTGGGAAATGACA,2230
8,CCGCCCTCACAATATCCCAGGAAACAGACATCCGCG,275
9,GGGAAAGGAAATAGCTCTACGAGCGGCATCCTGCCT,2170
10,CACGTTCACTTCCTGGTTCACTTCTTCCGGGTTAAC,18200
11,GCCGGAGACTAGCTTCCGCTTCCGGTGTGAGCGGCC,26200
12,TGCGCATTTCCGCTCCTTGCCGGTTTTCCGGACCTC,36000
13,AGTAGGTCTCTACGGAAACAGGAAAAAAAAAAATTC,204
14,TCGCTTCCTCTGAGTAAGCAGGTTTTTAGGAAATTA,7330
15,GGGCGAGCTTCCTGCCAATCAGGGCGGAACCAGCGC,14400
16,CTGGCACTCTCTTCCGCCTCCTTCCTGCCTCCCTGT,4730
17,CGTCAGTCACCTCAGGAAGTTCCGCTTGCTTCTCGC,817
18,TTAAAATGGCGGCGGAAGAGATCCGGGCGCCGCCTG,377
19,CTCCGCACTCCCTTCCGGGACTTCCTCTCCCTGTCT,3720
20,CTGTCACACAGGAAGACCACACAGGAAGACCAGGTG,1320
21,CCCGCTACCTCTTCCTGCTCATTTCCTGCCAATCTT,9940
22,GACACTTCCTACAGAGATAAGCCAATATTTCCTGTT,14900
23,TGCTTAGGAAATTGCCAGAGTGGACACATCCGTATG,192

row,Sequence,ETS1 binding intensity
1,TTCCGACCGGAAGTGAGAAGAGGAGGAAGTTGGCTG,64200
2,CCAGTCACGCGGCTTCCGCTTCCGGTCGTGCCCTCT,35700
3,CCATAAAGGATGTTTTGTGTGAATGTTTCCGGCTGC,1500
4,TTCCTCTCCTTTCCGCGAGACCTTCCGCGGTTATCC,178
5,TACCCATTTCTAAGGAAATAGGAAATAGTCTCACTT,226
6,CCTGAAAGGATGTGCTCACTTTGCCTTTCCTGCCTG,1610
7,AGTACCTTGGCACATCCTACTTCCCTTGCAACGAAT,2030
8,CCCTCCAGGAAGTGCCCTGGGCAACTTCCTTGCTAA,7360
9,AGTGGCTGGTTCCGCCACGCTGCCGGAAAGCGCCCC,349
10,ACTGGGTCGGCGGCTTCCTTCCGGCTCTGCGCTCCT,3900
11,GCAATTTCCGCGCGCACCCCTTAAACAGGAACTGTT,9840
12,AAACAGGATATGGGTGACCTGGGAAACATCCCCAAA,3470
13,CTCCCGCGACCGGAAGAGTCGCTTCCGCTCCCGCCC,15200
14,AGAGAGTGCTCACGGAAACATCCTGCCCCTTAAAAC,3470
15,CTAGCCGGAGACCGGAAGCGGAAGCGCGCTTGTGTC,25100
16,CGCCCAGCCGCTTCCTCGGCGCATCCGCCCACCCGC,2120
17,TCTGGGCCAGGAAACACACGTGCATCCTGCGCATGC,905
18,TCTGAACATCCTCTTCTGCTCTCTCTTTCCTGCCTT,5200
19,ACAGCATCCGGAGCGCCGACGCGGGACCGGAAGTGA,26000
20,GGACAGGAAATGTTTACTGCCTGTGGCTTCCTGTCT,8810
21,TCTAATCAGACCACTTCCTTCCTGCTGCTTTGGTTT,4210
22,ACACACCCAGGATGCTCTCACCACTTCCCAGAGCCA,337
23,AGGCCGGCCCCAGCTTCCTTCCTGCTCTTCTGTCCC,1840

row,Sequence,ETS1 binding intensity
1,CGCCACATCCTGCCACCAGCAGCCCCGGAAGACACT,32300
2,TGCACCCAACCCGGAAATACTTCCTGTTTTAAAGTG,26500
3,AACCACAAGGAAATGGGGAATATGGGGAAGTTGCGC,288
4,CCAATTCGGAAGTGCCAAATGCAACTTCCGGGCAGG,9200
5,TCAGGAGGAAGCGCGGCGGCGGCGGCGGAACGCGCG,247
6,AAAACATATCCTGTGTTCACTAAGGGGAAGTGGTTT,17500
7,AGAGGATGTAAGGAAATGCCTGGATGTCCAGGCAAA,503
8,GCCGAGGACACTTCCGCGGGCGGAACCTGCCGGCAC,5200
9,CGAGGCCGGAAGTGGCCGTGGAGGCGGAAGTGGCGC,39500
10,AATGACACAGACAGGAAATGGGAAATGGTTCAGGGT,12600
11,GCTGTGAGGGAGCGGAAGCGGAAACGGCGCCGCTCC,8680
12,GAGGAGGAAATCACCCCTCCCCCATCATTTCCTGGG,846
13,GGCAAGCCAGACCGGATTTGGGAAACGTGTTATCAT,675
14,GGCCCCGGAAATCGGCTCAACCGTACTTCCGCTCAG,10100
15,CCACCGGAATTAGCCCACTTAATGGCAGGAACTGTG,820
16,CGGCTCACGGGAAATGTAGTCCACTTCCCAGAGGGC,326
17,TTTTATTTCCGGTTCTGAGGACGCCGCGGAAGCGGG,78400
18,GGAGCACTTCCGCTGGACGCACGCACTTCCGGCCCC,50800
19,TCGGGCCCTGGCTTCCGTCACTTCCGCCCGTGCCTG,14700
20,TTTCCTACCCATTTCCTCCACTTCCTGGACACAAAG,5660
21,TCTGAGGCGAAACTTCCCCTTCCGGCGACCGCGGAC,4660
22,TGTCCCTTCCTCCAGATGCTGATTGAGGATGTGTCC,689
23,AACCACTTCCGGTGAGTAGCTTCTACTTCCGGAGAC,135000

row,Sequence,ETS1 binding intensity
1,AGCACTTCCTGTTTGATCTCTATGATCCATCCTGTT,106000
2,CGTAAGCCGGAAGTGCAAACTGCTCTTCCTGTCTCC,26300
3,CGAACTTCCTGCCTCAGCCTCCTGAGCTTCCTGAGT,50100
4,CGCGGTGTCCGGGAAGTGACTCTTCCTGGCAGAGGG,2620
5,TGCTATACCAGGAAACCTCTGTTTCCTGTTCTAGGG,5270
6,CAGAACTCGCTTTTCCGGCCTTCCTGGGGTGGGCTG,7910
7,CGCAGAAACTTCCCGCTCCGACAGGAAACAGCACTT,3450
8,CCGGGGTTCCGGCGCCGCGCGTTTTGGTTCCGGAGT,2740
9,GGCAGAGGCAACAGGAAGTGGGAAATGAGTCCCAGG,16000
10,GTCCCGGCCACCGGAAGCCCGGAACGGCCACATGGT,9950
11,AGACAATCACATCCCCACTGACTTCCTGCCTTTCCT,7280
12,GGGCACTTCCTGCCCCAAACAATGACAGGAAGGTCC,50100
13,GGCACACGGAAGTGAGGAGCTGGGTTTCCTCCCATC,2390
14,AGTGGTTAGGAAATTGAGAGGCATTTCCGATGAAGA,443
15,GGGAGAAGTGGCTTCCTGTGGGGAAATGCCCAGAGC,12900
16,CGAGGCGGTCGCGGAAGTAGAGGAAGCCTTCGCGGT,686
17,CGGGCACTTCCGGCGCGAACCGCTACTTCCGGTGCG,95900
18,TCTGCACAGGATGAGTGTTCGGAGGGGAAGTGACTG,296
19,GCGAAGCAGGATGCCCTCAACCCACATCCGGCAAAA,6730
20,AGTGTGGAGGAAGTGACACCAAAGAGGAAATGCGGG,2260
21,TGCGGTTCACTTCCTTTGGGACAGGAAGTCTTCCCT,10300
22,ACTTTTCATACTTCCTGCTTGAGGAAGCTGCTACTG,16500
23,CTCATGGCAACAGGAACTATTTCCTTTGGCTTATGA,1800
